# This is one part of the list.
# System: T1, C. trachomatis L2/434/Bu expressing GFP (CTL2-GFP)
# T1 construct: L2/434/Bu GFP intracellular growth in HeLa cells
# Design: species or system HeLa; C. trachomatis total inclusion area by high-content imaging, normalised to DMSO
# Conditions: total inclusion area; 28.5 h, 10 µM; inhibitor
# Procedure, shortened: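 Bulk GFP and resorufin signals were read first. Wells were then fixed, stained with Hoechst and imaged to detect GFP inclusions and host nuclei. MICs followed the previously described calculation.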
row,SMILES,% of control remaining
1,CCC(C(=O)N1CCc2nc(C)[nH]c(=O)c2C1)c1ccccc1 (centres unmarked) [CBK284618],61.8189
2,CC(C)CNc1cc(Cl)c(S(=O)(=O)NCC(C)C)cc1C(=O)O [CBK263405],107.925
3,CC1CCCCN1C(=O)CCc1nc2sc3c(c2c(=O)[nH]1)CCCC3 (centres unmarked) [CBK306086],73.7428
4,Cc1ccc(OCc2occc2C(=O)N2CCCC3(CCOC3)C2)cc1 (centres unmarked) [CBK307532],84.6391
5,O=C(NC(c1ccccc1)c1ccsc1)C1CCN(CCc2ccccc2)CC1 (centres unmarked) [CBK148433],85.6823
6,Cc1nc2ccc(NC(=S)N3c4ccccc4CC3C)cc2nc1C (centres unmarked) [CBK263169],70.3784
7,COCCN(Cc1cnn(C)c1)C(=O)Nc1cccc2nc(C)ccc12 [CBK306529],53.733
8,N#Cc1ccc(Oc2cccc(/N=C/c3ccc(/C=N/c4cccc(Oc5ccc(C#N)cc5)c4)cc3)c2)cc1 [CBK261157],85.7567
9,O=C1Nc2ccccc2S(=O)(=O)N2CCCC12 (centres unmarked) [CBK282864],88.761
10,Cc1cc(C)nc(Sc2nnc(-c3ccc(C)c(S(=O)(=O)N4CCOCC4)c3)c3ccccc23)n1 [CBK264400],109.846
11,COc1ccc([C@H]2CN(Cc3ccccc3)[C@@H]3CCN(C(=O)Cc4ccccc4)C[C@H]23)cc1 [CBK286285],43.8859
12,COc1ccc2cc(CNc3ccc(CCc4nc5ccccc5n4C)cc3)c(=O)[nH]c2c1 [CBK286159],124.45
13,Cc1nn(C)c(N2CCNCC2)c1NC(=O)C(C)c1ccccc1 (centres unmarked) [CBK045929T],60.5487
14,COc1ccc(-c2cc(C(=O)NC3CCCCC3C)c3ccccc3n2)cc1 (centres unmarked) [CBK294459],93.527
15,O=C(CN1CCC(c2ccccc2F)CC1)N1CCCC1 [CBK283578],95.2085
16,Clc1ccc(CSCCn2cccc2)cc1 [CBK021366],91.4849
17,Cc1cc2c(cc1C)C(O)CC1(CCN(C(=O)C3CCCC3)CC1)O2 (centres unmarked) [CBK282743],111.808
18,COc1cccc(Nc2[nH]nnc2C(=O)Nc2cccc(C)c2C)c1 [CBK288028],100.942
19,Cc1ccc(C(=O)NCc2ccco2)c(N2CCOCC2)n1 [CBK076410],71.1853
20,COC(=O)CCNc1nc(-c2ccc(Br)cc2)nc2ccccc12 [CBK263628],104.615
21,O=C(N[C@H]1CCN2C(=O)c3cc(-c4ccccc4)ccc3NC(=O)[C@H]12)C1CCCC1 [CBK289349],107.041
22,C[N+](C)(C)CCCCOC(c1ccccc1)c1ccccc1 [CBK261076I],95.5368
23,O=C(c1nc2ccccc2[nH]1)N1CCN(c2ccccc2)CC1 [CBK200167],109.127
24,CC(NC(=O)CCC1CCCC1)c1nc(-c2ccncc2)cs1 (centres unmarked) [CBK305819],80.3004
25,c1ccc(CN2CCN(Cc3ccccc3)C2c2ccc[nH]2)cc1 [CBK261283],96.6029
26,COCCN(Cc1cnn(C)c1)C(=O)Cc1coc2cc(C)c(Cl)cc12 [CBK307435],20.1566
27,O=C(CN1CCOCC1)N/N=C/c1cc2ccccc2nc1Cl [CBK262732],91.1974

row,SMILES,% of control remaining
1,COc1cccc(CC(=O)N2CCC[C@@H](N)[C@@H]2c2ccccc2F)c1 [CBK283455],105.501
2,Cc1cc(-c2nccnc2N2CCN(CCN(C)C)CC2)cc(C)c1O [CBK037184],104.101
3,CCCCSc1nc(N)cc(N2CCN3C(=O)CN(C)C(=O)C3C2)n1 (centres unmarked) [CBK306940],90.8226
4,CCn1c(SCC(=O)Nc2cc(C)ccc2F)nnc1-c1ccccc1O [CBK269532],79.5956
5,O=[N+]([O-])c1ccc(S(=O)(=O)N2CCC3(CC2)OCCO3)cc1 [CBK269303],63.02
6,O=C(CN(c1ccccc1)S(=O)(=O)c1ccccc1[N+](=O)[O-])Nc1ccc(I)cc1 [CBK263755],76.0579
7,Cc1cc(C)c(NC(=O)CSCc2cc(O)[nH]n2)c(Cl)c1 [CBK268302],89.628
8,CCC(CO)Nc1nccnc1-c1ccc(CO)cc1 (centres unmarked) [CBK036607],112.318
9,CC1CCN(C(=O)Cn2c(=O)n(C(C)C)c3ncccc32)CC1 [CBK283698],93.1705
10,COc1ccc(Nc2cc(-c3ccccc3OC)ncn2)cn1 [CBK037176],139.404
11,COc1ccc(-c2cc(C(F)(F)F)nc(SCC(=O)N3CCN(C)CC3)n2)cc1OC [CBK266194],111.811
12,CC(NC(=O)CCc1cnn(C)c1)c1cccc(-n2ccnc2)c1 (centres unmarked) [CBK306139],52.3191
13,O=C(O)CC1C(=O)NCCN1CCCc1ccccc1 (centres unmarked) [CBK287176],63.2971
14,Cc1ccc(-n2ncc(C(=O)N3CCc4ccccc4C3)c2NC(=O)c2ccco2)cc1C [CBK267207],106.566
15,O=C(Nc1ccc(N2CCN(Cc3ccccc3)CC2)cc1)c1ccc(-c2ccccc2)cc1 [CBK268622],82.2174
16,CCOC(=O)CNS(=O)(=O)Cc1ccccc1[N+](=O)[O-] [CBK034439],90.0105
17,Cc1cc(C)c(S(=O)(=O)Nc2ccccc2C(=O)NCc2ccco2)c(C)c1 [CBK266382],109.714
18,CCc1c(C)nc2ccccc2c1[S+]([O-])CCC(=O)OC (centres unmarked) [CBK155467T],85.0106
19,CC(O)(c1ccncc1)c1nccs1 (centres unmarked) [CBK281504],87.8533
20,COc1cc(C2NC(=S)NC(c3ccccc3)=C2C(=O)c2ccccc2)cc(I)c1OCCO (centres unmarked) [CBK267485],91.5815
21,O=C(CCn1c(C(F)F)cc2cccnc21)NCC1CCCO1 (centres unmarked) [CBK282165],91.8889
22,CC1(C)Cc2nc3nc(SCC(=O)c4ccc(Br)cc4)n(-c4ccccc4)c(=O)c3cc2CO1 [CBK263310],40.9487
23,COCC(=O)Nc1c[nH]nc1C1CCCN(c2cccc(F)c2C#N)C1 (centres unmarked) [CBK305395],88.4174
24,O=C(CC[C@@H]1CNC(=O)[C@@H]2C[C@H](NC(=O)c3ccco3)CN12)Nc1ccccc1 [CBK289007],71.3601
25,O=C(c1n[nH]c2ccccc12)N1CCc2ccccc2C1 [CBK200330],100.707
26,CCN(CC)CCOc1c(C)cc(Cl)cc1C [CBK262219],112.36
27,CCn1cnc2cc(NC(=O)C3CC4C=CC3C43CC3)ccc21 (centres unmarked) [CBK281384],91.6471

row,SMILES,% of control remaining
1,CC(C)c1ccc(S(=O)(=O)Nc2cccnc2)cc1 [CBK043884],59.9559
2,O=C1C=CC2=C3Oc4c(ccc5cc(O)ccc45)C(c4ccccc4C(=O)O)C3C=CC2=C1 (centres unmarked) [CBK278169N],89.1436
3,Cc1ccc(-n2cccn2)cc1S(=O)(=O)NCCN1CCCCC1CO (centres unmarked) [CBK307163],49.385
4,CCCc1ccc(OCC(=O)Nc2ccccc2C(N)=O)cc1 [CBK263103],83.1852
5,Cn1c(/C(C#N)=C\c2ccc(-c3ccc(S(N)(=O)=O)cc3)o2)nc2ccccc21 [CBK266380],55.3019
6,Cc1c(C)n(CC(O)CNCc2ccco2)c2ccccc12 (centres unmarked) [CBK263970G],77.485
7,C=CCn1c2cc(C)sc2c2cnn(CC(=O)OC)c(=O)c21 [CBK284166],85.8148
8,CC(=O)c1c2c(c(N3CCN(C#N)CC3)[nH]c1=S)CC(C)(C)OC2 [CBK018622],92.0797
9,Cc1nn2c(-c3ccncc3)ccnc2c1-c1ccccc1 [CBK288548],76.588
10,COc1ccccc1NC(=O)C(=O)N/N=C/c1ccc(C(=O)O)cc1 [CBK262148],103.241
11,CCOC(=O)C1CCN(C(=O)Nc2cc(C)on2)CC1 [CBK306280],63.5657
12,O=C(/C=C/c1ccc(F)cc1)NCCc1ccc(S(=O)(=O)N2CCCC2)cc1 [CBK265227],116.087
13,CC(=O)N1CC(C(=O)Nc2ncc(-c3ccccc3)n2C)C1 [CBK281373],90.8555
14,Nc1ncnc(Nc2ccc(Nc3ccccc3)cc2)c1[N+](=O)[O-] [CBK267347],132.802
15,Cn1c(CO)nnc1[C@H]1C[C@@H](NC(=O)COc2ccc(Cl)c(Cl)c2)C1 [CBK306667],89.9828
16,CCc1nnsc1C(=O)Nc1nn(C)c2cccc(N3CCOCC3)c12 [CBK307671],78.4733
17,O=C(Nc1ccc(N2CCN(Cc3ccccc3F)CC2)cc1)c1cc2ccccc2o1 [CBK267210],115.458
18,Cc1cc(S(=O)(=O)NCc2cc(F)c(F)c(F)c2)c(C)cc1Cl [CBK043813],100.665
19,CCNC(=O)Nc1ccc2ccc(-c3ccsc3)nc2n1 [CBK070699],60.0014
20,Cc1nc([N+](=O)[O-])c(NCCO)n1Cc1ccccc1 [CBK261422],112.176
21,N#Cc1nc(=O)[nH]cc1N [CBK021411],81.9913
22,Cn1cnnc1C1CCN(C(=O)CC2OCCc3sccc32)CC1 (centres unmarked) [CBK304912],79.5943
23,Cc1ccc(N(CC(=O)Nc2cccc3ccccc23)S(=O)(=O)c2ccc(F)cc2)cc1 [CBK262707],86.4915
24,CCOC(=O)c1c(NC(=O)CSc2n[nH]c(N)n2)sc2c1CCCCC2 [CBK266569],103.859
25,CN(CC(=O)Nc1cccc(Cl)c1)S(=O)(=O)c1ccc2ccccc2c1 [CBK266746],114.938
26,COC(=O)c1c(C)n(CCCNc2ccc([N+](=O)[O-])cc2Cl)c2ccc(O)cc12 [CBK268363],111.452

# — publication PMC12040169 (PLOS Biology, 2025)
